Measurements as given in the supplement of paper PMC4466236.
In all, about 33,000 sequences were measured (“E-score (dimensionless, -0.5 to 0.5)”: median about -0.058, highest 2% from about 0.35 on). The list shows a part of the results.

system: MvaT; test: PBM 8-mer E-score (mean of HK and ME arrays) (E-score (dimensionless, -0.5 to 0.5)); higher = stronger relative binding preference; most listed sequences are background and not binding sites
In short: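 Full-length P. aeruginosa MvaT carrying an N-terminal glutathione S-transferase tag was tested by protein binding microarray following a previously described protocol. Two universal double-stranded 60-mer arrays, ME and HK, were used, each with a constant 25-mer primer region and a variable 35-mer region covering all 8-mers. The rank-based E-score is the mean of the two arrays, parsed with a custom script. Its range runs from -0.5 to 0.5 for each 8-mer.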

Row | Sequence | PBM 8-mer E-score
1 | GAACGAAC | -0.0148
2 | AAAGTCCA | 0.0511
3 | ATATAGAA | 0.366
4 | GTAGACTA | 0.175
5 | CTCAACTA | 0.0798
6 | AGGGTCAG | -0.15
7 | AGACAGAC | 0.0122
8 | AGTCGAGG | -0.166
9 | TAATAGAA | 0.254
10 | ACTTACCA | 0.121
11 | CCTTGGGA | -0.209
12 | CGGGCTAA | 0.0382
13 | ACCCCGAC | -0.219
14 | CTAGGAAA | -0.061
15 | TGCATTAA | 0.332
16 | TCTTACCA | 0.0879
17 | CAAGTAGA | 0.141
18 | AGGGACGA | -0.224
19 | CCGGCAAC | -0.0911
20 | GCGGCGGA | -0.273
21 | ATGACTGG | -0.158
22 | CCGTCCCG | -0.215
23 | GAGCTATC | -0.132
24 | CCTTATGC | -0.0519
25 | GAGATGGC | -0.156

Row | Sequence | PBM 8-mer E-score
26 | GTCCAGAA | -0.136
27 | AAAATGGC | 0.0819
28 | CGTCACCC | -0.201
29 | CATAGCGA | 0.0278
30 | GTCCCTGA | -0.157
31 | AGGTGGGG | -0.279
32 | CACAGTTC | 0.0722
33 | CACTTTCG | -0.114
34 | GCGATATA | 0.361
35 | AAGAAGAA | -0.0743
36 | CAGAGGGA | -0.175
37 | CGGAACAC | -0.0626
38 | AGTCGTTG | 0.00501
39 | ATACGCGC | 0.108
40 | ATGTCGCA | -0.0506
41 | AGGTGTTC | -0.137
42 | CCTACCGC | -0.179
43 | AGCTATTG | 0.148
44 | CAGGGGGG | -0.222
45 | TCTATCCA | 0.022
46 | TAGACACA | 0.00939
47 | AGTTGTCA | 0.0771
48 | ACTTATCA | 0.196
49 | ATAAGGGG | -0.0441
50 | GCCTCAAC | -0.106

Row | Sequence | PBM 8-mer E-score
51 | TAATGCCA | 0.115
52 | ACTTCCTG | 0.116
53 | GAATCAAA | 0.13
54 | ATACTTAC | 0.305
55 | CGATGCAG | -0.139
56 | GCATTACA | 0.0726
57 | CAAAAACC | -0.0563
58 | CTGACAGC | -0.246
59 | GCTGGGGA | -0.258
60 | CTCGCACA | -0.12
61 | ATGTGTCC | 0.0838
62 | GGCTGGAA | -0.171
63 | CGTTTTGC | 0.0694
64 | CCAAAGTC | 0.0274
65 | CCCTGCAG | -0.29
66 | CCTTCACG | -0.149
67 | GGCCAAGA | -0.156
68 | CGTGAGAG | -0.085
69 | AACTAAGT | 0.218
70 | AAGCGATC | -0.18
71 | TAATCCTA | 0.0852
72 | AAACACAC | 0.156
73 | AACATGAT | 0.174
74 | CACGAACC | -0.245
75 | CGCAAGAG | 0.0446

Row | Sequence | PBM 8-mer E-score
76 | GGGGCTAC | -0.268
77 | ACGGTACT | -0.0571
78 | GGATAGAC | -0.273
79 | ACCTACAT | 0.14
80 | TGGTACCA | -0.0714
81 | ACGACATG | -0.0211
82 | CAGCAATC | -0.13
83 | GGGTTAGA | -0.0965
84 | CATCAACG | -0.0375
85 | ACATCACT | 0.0816
86 | GATAGGAC | -0.129
87 | AAGAGTGT | 0.105
88 | CAAGAAGA | -0.00181
89 | AAAACCCG | 0.101
90 | CTATTCAC | -0.0265
91 | ATCGCTTG | -0.175
92 | AAGTACGT | 0.0621
93 | CGGGATCA | -0.122
94 | CCTTTGTA | -0.1
95 | CCACTGGG | -0.218
96 | AGGCAATC | -0.0359
97 | ACTTTTCA | 0.188
98 | GTCGGCAC | -0.256
99 | ACGAATGC | -0.187
100 | AGCCCAAT | -0.00706

Row | Sequence | PBM 8-mer E-score
101 | CACGTGAA | 0.0328
102 | AGCACACG | -0.185
103 | AAAATAAC | 0.378
104 | CGCGGACC | -0.283
105 | AGTGGATC | -0.147
106 | ATATGGCG | 0.248
107 | GGTCAAGA | -0.178
108 | CAGGGTAA | -0.098
109 | CCTACTAG | -0.145
110 | CAGGATCA | -0.0557
111 | TATGGAAA | 0.221
112 | CGGACATC | -0.195
113 | CGCCGAAA | -0.0708
114 | CTCGATGC | -0.275
115 | GGCTACTA | -0.203
116 | GGTACGAC | -0.242
117 | CATCCCAA | -0.0621
118 | CAGACAGA | -0.0731
119 | ACGATCAT | -0.00124
120 | CATATCTC | 0.085
121 | GCCGAGAC | -0.167
122 | CACTCCGC | -0.245
123 | GCACTCCA | -0.261
124 | ACTTTCAG | 0.0974
125 | AGGGGGAT | -0.247

Row | Sequence | PBM 8-mer E-score
126 | GAATTTTA | 0.254
127 | ATGTGAGG | -0.0895
128 | ACTTGCCA | 0.0498
129 | CTCATAGC | -0.173
130 | ACTAGAAC | 0.167
131 | GGTACATA | 0.123
132 | GATCGATA | 0.219
133 | ATTTATTC | 0.295
134 | ATTGGGTA | 0.0919
135 | AATCGCAC | 0.0897
136 | AACACGAT | 0.0957
137 | CCACAGAA | -0.0553
138 | GAAAACGC | 0.0943
139 | GGCCCTTA | -0.232
140 | ACGTAATA | 0.29
141 | CTACCCAG | -0.156
142 | CCGCATCC | -0.14
143 | TAGCCTGA | -0.21
144 | CTGAAGCA | -0.235
145 | ACAAAAGG | 0.0348
146 | AGGGTTCC | -0.308
147 | CCGGCGAC | -0.147
148 | ACAATAAC | 0.324
149 | GCAACTCA | 0.0297
150 | CGGTTACG | -0.105

Row | Sequence | PBM 8-mer E-score
151 | CTCTTCGC | -0.138
152 | CAGGGGAG | -0.312
153 | ATTATAGA | 0.331
154 | CACTTAGG | -0.145
155 | GGTTAGAC | -0.0626
156 | AACCTCGG | -0.178
157 | CTGCTCGC | -0.223
158 | CTGGATAC | -0.107
159 | CGCGCGGA | -0.0938
160 | CTCGCCTC | -0.301
161 | CTTAGAAA | 0.216
162 | CAGAGACC | -0.192
163 | AATAGAAG | 0.0707
164 | TAGCAGGA | -0.116
165 | AAGTTCTG | 0.209
166 | ATTCTGCC | -0.118
167 | GGGCGAAA | -0.123
168 | GTTTATCA | 0.19
169 | ACGCGTTA | 0.134
170 | ACGAGTTG | 0.0694
171 | GGAATGCA | -0.15
172 | ATCACCGC | -0.0426
